The results in this text go back to ChEMBL document CHEMBL4888484, “Replenishing the malaria drug discovery pipeline: Screening and hit evaluation of the MMV Hit Generation Library 1 (HGL1) against asexual blood stage Plasmodium falciparum ,using a nano luciferase reporter read-out” (2022).

Hit rate of the full screen: of about 150,000 compounds, about 540 (0.36%) showed an effect of 50% or more. This is one part of the list.

The experiment relates to Plasmodium falciparum. The experiment is described as follows: Primary screen in NF54 nanoGlo assay, in single point, at 2uM, 72h; a lower Z score goes with more inhibition. Conditions: timepoint 72 hour. The format is functional, Erythrocyte.
`O=C(CN1CCCCS1(=O)=O)N[C@@H]1Cc2ccccc2[C@H]1O`: the “% Inhibition” value was -5% and the Z score is listed as 0.67.

Consider `CCOC(=O)Cc1csc(NC(=O)N[C@@H](CC)c2nnc3n2CCCCC3)n1`, for which the “% Inhibition” value was -5% and the Z score is recorded as 0.79.

With `CC(C)Oc1nccnc1N1CCC[C@H](CO)CC1`, the “% Inhibition” value is on record as -1% and the Z score came to 0.14.

Take `CN(CCc1ncccn1)CC(=O)NC1(C#N)CCCCC1`: the “% Inhibition” value is recorded as -7% and the Z score was 1.13.

Regarding `COc1cccc(CN2CC[C@H](N(CCc3noc(C4CCC4)n3)C(C)=O)C2)n1`, the “% Inhibition” value came to 0% and the Z score is on record as -0.01.

Consider `Cc1ccc(Cl)c(CN2CCN3C(=O)OC[C@H]3C2)c1F`, for which the “% Inhibition” value turned out to be 8% and the Z score is reported as -1.08.

Consider `Cc1ccc(NC(=O)CN(C)S(=O)(=O)c2c[nH]c(C(=O)N3CCCC3)c2)c(Br)c1`, for which the “% Inhibition” value was -19% and the Z score turned out to be 1.87.

Turning to `CNC(=O)c1nc[nH]c1-n1nc(-c2ccc(C)cc2)cc1N`, the “% Inhibition” value is on record as -5% and the Z score was found to be 0.82.

For `Cc1nnc(CN2CCN(Cc3nnc(C)s3)[C@H](c3cnn(C)c3)C2)s1`, the “% Inhibition” value is 14% and the Z score was -1.79.

Regarding `Cc1ccc(NC2(C(=O)N3CCNC(=O)[C@@H]3CCO)CCCC2)cc1`, the “% Inhibition” value is -3% and the Z score is 0.44.

Take `CC(=O)N[C@H]1C[C@@H](c2ccc(Cl)cc2)O[C@@H](c2cnn3cccnc23)C1`: the “% Inhibition” value is on record as 1% and the Z score was -0.16.

`c1cc(-c2ccc3oc(C4CC4)nc3c2)cc(-c2cc[nH]n2)c1`: the “% Inhibition” value is on record as -9% and the Z score is given as 1.25.

In the case of `N#Cc1ccc(OCc2nc3ccccc3o2)c(Cl)c1`, the “% Inhibition” value is 4% and the Z score is on record as -0.77.

As for `Cc1cc(C(=O)N2CCCn3cncc3C2)cc2sc(N)nc12`, the “% Inhibition” value is given as -17% and the Z score is reported as 1.53.

As to `Cc1noc(C)c1C(C)NS(=O)(=O)CC(C)c1ccccc1` (stereo unspecified), the “% Inhibition” value was -28% and the Z score stood at 5.33.

As for `O=C1N[C@@H](c2cc(Cl)c3c(c2)OCCCO3)Nc2ncccc21`, the “% Inhibition” value is recorded as -1% and the Z score is 0.14.

With `CCc1cc(C(=O)N(CC)c2ccccc2)c2c(C)noc2n1`, the “% Inhibition” value is recorded as 32% and the Z score is given as -4.35.

As for `CCCc1ccc(OCCNC(=O)Cn2nc(C)cc2N)cc1`, the “% Inhibition” value is listed as -9% and the Z score was determined as 0.97.

On to `Cc1cc(C)cc(S(=O)(=O)NCc2nc3cccnc3n2Cc2ccc(F)cc2)c1`, for which the “% Inhibition” value worked out at 1% and the Z score is reported as -0.12.

Consider `O=C(CCC(F)(F)F)c1cccnc1`, for which the “% Inhibition” value is 5% and the Z score was -0.77.

Turning to `C[C@@H]1CN(Cc2nccn2C)C[C@]1(C)O`, the “% Inhibition” value is on record as -10% and the Z score came to 1.91.

Take `Cc1cc(C)c(-c2cnc(-n3cnnc3)c(C)c2)c(C)c1`: the “% Inhibition” value is reported as -3% and the Z score came out at 0.65.

Consider `CCC1CN(Cc2ncccn2)C(CC)CN1Cc1ncccn1` (stereo unspecified), for which the “% Inhibition” value is -18% and the Z score is listed as 1.93.

In the case of `CNS(=O)(=O)c1cccc(NC(=O)c2ccn(C)c2C)c1`, the “% Inhibition” value was -6% and the Z score came to 1.08.

On to `Fc1ccc(CNCc2cccnc2N2CCN(c3ccccn3)CC2)cc1F`, for which the “% Inhibition” value amounted to 4% and the Z score was -0.53.

Regarding `O=C(c1ccc2nsnc2c1)N1CCN(C(=O)c2cc3n(n2)CCCC3)CC1`, the “% Inhibition” value is recorded as -5% and the Z score amounted to 0.78.

Consider `Cc1cccc(C(=O)N2C(C(=O)NCC3CCCO3)COC23CCC(C)CC3)c1` (stereo unspecified), for which the “% Inhibition” value was 0% and the Z score is on record as 0.03.

As for `Cc1cccc(S(=O)(=O)N2CCCO2)c1Cl`, the “% Inhibition” value is -9% and the Z score is listed as 1.88.

In the case of `Cc1ccc([C@H](CNC(=O)c2nn(C)cc2C)N2CCCC2)o1`, the “% Inhibition” value is recorded as -7% and the Z score came to 1.3.

For `CCn1cc(Br)cc1C(=O)N1CC[C@H](C(=O)O)C1`, the “% Inhibition” value was -19% and the Z score stood at 2.27.

On to `CC1CN(Cc2cnn(C3(C)CCS(=O)(=O)C3)c2)c2ccccc21` (stereo unspecified), for which the “% Inhibition” value was 4% and the Z score is listed as -0.6.

Take `CC(C)Cc1noc(CNCCCNS(C)(=O)=O)n1`: the “% Inhibition” value is -5% and the Z score stood at 0.45.

For `O=C(CN1CCCC1)Nc1cccc2nonc12`, the “% Inhibition” value is listed as -1% and the Z score stood at 0.22.

On to `Cc1nc(C)c(C(=O)NCCOCc2ccc(Cl)cc2Cl)o1`, for which the “% Inhibition” value is on record as -7% and the Z score was determined as 0.94.

For the compound `CC(=O)N1C[C@@H]2C[C@H](NC(=O)c3ccc(C)cn3)CN2C(=O)[C@@H]1C`, the “% Inhibition” value is reported as -5% and the Z score was 0.74.

Consider `COc1cc2c(cc1OC)CN(C(=O)CN(C)c1ccc(O)cc1)CC2`, for which the “% Inhibition” value worked out at 18% and the Z score is -2.28.

On to `Cc1ccccc1CNC(=O)c1csc(-c2ccnc(N3CCOCC3)c2)n1`, for which the “% Inhibition” value is -3% and the Z score amounted to 0.36.

With `CC1COCC1NC1c2ccccc2CC1O` (stereo unspecified), the “% Inhibition” value is -1% and the Z score is on record as 0.17.

Take `O=C(c1ccnc2[nH]c(CC3CC3)nc12)N1CCOCC12CCC2`: the “% Inhibition” value was -3% and the Z score is 0.48.

`Cc1cc2n(n1)CCC(=O)N2CC(=O)NC1CCCC1`: the “% Inhibition” value was -13% and the Z score is reported as 1.27.

For `CNC(=O)c1[nH]nc2c1CN(CC(=O)Nc1cccc(C)c1C)CC2`, the “% Inhibition” value was -5% and the Z score came out at 0.76.

As to `COCC1CCCN(C(=O)CCC2(Cc3ccc4ccccc4c3)CCC(=O)N2)C1` (stereo unspecified), the “% Inhibition” value is on record as 4% and the Z score was -0.53.

For the compound `Cc1cc(C)n(CCN(C)C(=O)CCN2CCCCCC2=O)n1`, the “% Inhibition” value is given as -8% and the Z score stood at 1.4.
